# From PubChem BioAssay AID1362 (SRMLSC, 2008)
# The other results are listed elsewhere or left out. Further columns of the screen follow, without active or inactive calls. Most of these compounds were active or inconclusive in the main read-out, so they are no random draw.
# Assay: growth inhibition of WT strain, primary screen, mitochondrial fusion inhibitor project, WT and mutant strains, chemical genetic (AID 1362); further: tested in S. cerevisiae
# Settings: mitochondrial fusion phenotypic screen, at 10 µM
row,Structure (SMILES),inhibition [%]
1,O=C(N/N=C/C=C/c1ccccc1)C1CC1c1ccccc1 (stereo not drawn),1.76
2,O=C(C1=C(O)/C(=C/c2ccc(O)cc2)CCC1)C(F)(F)F,43.8
3,Cc1ccc(SCC(=O)O/N=C(\N)c2cccc([N+](=O)[O-])c2)cc1,-14.9
4,Oc1ccc(/C=C/c2nc(-c3ccccc3O)n(-c3ccccc3)n2)cc1,58.3
5,Cc1ccc(/C=[N+](\[O-])c2ccc(N(C)C)cc2)c2nsnc12,65.1
6,Cc1nc(-c2cccc(NS(=O)(=O)c3cccc4ccccc34)c2)cs1,-27.6
7,O=C(NC(=S)N1CCN(c2c(Cl)cccc2[N+](=O)[O-])CC1)c1cccs1,61.6
8,O=C(c1cccc(COc2ccc(Cl)cc2Cl)c1)N1CCN(c2ccccn2)CC1,59
9,O=C1c2ccccc2CC1(Cc1ccccc1)Cc1ccccc1,54.9
10,O=C1CCc2ccc(OCCCCN3CCN(c4cccc(Cl)c4Cl)CC3)cc2N1,81.8
11,COc1ccc2oc(=O)c(-c3csc(Nc4cccc(O)c4)n3)cc2c1,53.9
12,COC(=O)N/N=C/c1cn(Cc2c(Cl)cccc2Cl)c2ccccc12,25.9
13,CSc1nc(Sc2cccc(Cl)c2)c2ccccc2n1,9.53
14,CCOC(=O)c1cc2c(ccn2C)n1Cc1ccccc1Cl,42.3
15,COC(=O)C1=C(O)/C(=C\c2ccc(CNC(=O)C(=O)Nc3ccc(C)cc3)o2)N=C1C,5.58
16,COc1ccc(O[C@H]2C=C[C@@H](c3ccccc3)O[C@@H]2COC(=O)CC/C(C)=N/O[C@@H](C)CN2CCCCc3nc(C)c(C)cc32)cc1,1.19
17,CCCCCOC(=O)c1ccc(NC(=O)c2ccco2)cc1,0.8
18,C=CCc1cccc(CNc2nc3ccccc3n2CCC)c1O,32.4
19,COc1ccc(C2CC(c3ccccc3)=NN2c2ccc(S(N)(=O)=O)cc2)cc1 (stereo not drawn),24.3
20,COc1ccc(N2CCN(C(=O)CC34CC5CC(CC(C5)C3)C4)CC2)c([N+](=O)[O-])c1,20.5
21,CC(C)N1C(=O)/C(=C\c2nc3ccccc3c(=O)n2-c2ccccc2)c2ccccc21,33.6
22,O=c1cc2c(nn1Cc1ccc(Cl)cc1)-c1ccccc1CC2,43.2
23,Cc1[nH]c2ccccc2c1C(=O)COC(=O)c1c(-c2c(F)cccc2Cl)noc1C,72.1
24,CCCCCCCCCCCC(=O)c1c(O)cccc1O,81.2
25,Cc1ccc(S(=O)(=O)c2nc(Nc3ccccc3)sc2Cl)cc1,19.1
26,COC(=O)COc1ccc(C)cc1-n1nc2ccccc2n1,67
27,Cc1cc2cc(CCNC(=O)c3ccc(Br)o3)c(=O)[nH]c2cc1C,67

row,Structure (SMILES),inhibition [%]
1,CCN1/C(=C\C(=S)Nc2ccccc2)Sc2ccccc21,57
2,Cc1cccc(N2CCN(C(=O)C34CC5CC(CC(C5)C3)C4)CC2)c1C,56.1
3,O=C(CCc1ccccc1)Nc1ncc2c(n1)CCCC2=O,-6.74
4,COc1ccc(-c2cn[nH]c2-c2ccc(OCc3ccc([N+](=O)[O-])cc3)cc2O)cc1,11.1
5,COc1ccc(OC)c(NC(=O)C(=S)NC2CCCCC2)c1,28.7
6,Fc1ccc(Nc2nc(N/N=C/c3ccco3)nc(N3CCCCC3)n2)cc1,13.9
7,COc1ccc(NS(=O)(=O)c2ccc3c(c2)Cc2ccccc2-3)cn1,32.6
8,COc1ccc(Cn2c(-c3ccc(Br)cc3)c[n+]3ccccc23)cc1,41.3
9,CC(C)(C)n1nnnc1C(c1cccs1)N1CCCC2(CCCCC2)C1 (stereo not drawn),10.4
10,CC(C)c1ccc(NC(=S)N(C)CCc2ccccn2)cc1,63.1
11,CCOc1cc(CNc2ccc(N3CCCCC3)cc2)cc(Br)c1OCC(=O)NC(C)(C)C,31.6
12,S=C(Nc1cccc(Cl)c1)Nc1cccc2cnccc12,46.8
13,Cc1ccc(NS(=O)(=O)c2cc(C(=O)Nc3cccc([N+](=O)[O-])c3)ccc2C)cc1,20.9
14,O=C(Nc1ccc(Cl)c(C(F)(F)F)c1)c1ccco1,60.7
15,O=C(Nc1ncc(Cc2cccc(Cl)c2)s1)c1cccs1,69.4
16,CC1CCN(c2nc(-c3cccnc3)nc3scc(-c4ccccc4)c23)CC1,0.83
17,Fc1cccc(-c2cc3nc4c(c(N5CCC6(CC5)OCCO6)n3n2)CCCC4)c1,29.3
18,CCC(=O)C1=C(O)C(c2cccc(Oc3ccccc3)c2)CCC1=O (stereo not drawn),58.7
19,CCN(CC)CCNC(=O)Cn1nc(Cc2ccccc2)c2ccccc2c1=O,-11.9
20,CCOc1ccc(NS(=O)(=O)c2ccc(NC(=S)NC(=O)CC(C)C)cc2)cc1,14.6
21,C/C(CC1CC2=C(CC1(C)C)C(C)(C)CCC2)=N\NC(N)=S (stereo not drawn),40.6
22,Cc1cccc2sc(NNC(=O)c3cc(-c4cccs4)nc4ccccc34)nc12,14.7
23,O=S(=O)(c1ccc(F)cc1)N1CN(Cc2ccco2)c2nc3ccccc3nc21,51.9
24,CC1C(c2ccccc2)N(C)C(c2ccccc2)C(C)C1(O)C#Cc1ccccc1 (stereo not drawn),15.3
25,Cc1cccc(COCC(CC(C)C)N2CCN(C(=O)c3ccc(C(C)(C)C)cc3)CCC2=O)c1 (stereo not drawn),-9.54
26,CCCCOP(=O)(OCCCC)C(Nc1ccccc1)c1ccc2c(c1)OCO2 (stereo not drawn),13
